Source: PubChem BioAssay (NCI)
“And” between values parts separate entries of the source, which are not always exact repeats. Identical values can stand only once.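 Method: 48-hour compound exposure of cells in 96-well plates, five concentrations, linear interpolation of endpoints. GI50 marks 50% less growth. Definition used: TGI = concentration required for complete inhibition of growth.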

Tested on: NCI-H322M lung
Assay: DTP human tumour cell line panel, 48 h

| SMILES | TGI | GI50 [µM] |
| --- | --- | --- |
| C=C1CC/C=C(/C(=O)O)CC[C@H]2[C@@H]1CC2(C)C | > 100 µM | – |
| Cn1ccc(=Nc2ccc(NC(=O)c3ccc(N=c4ccn(C)c5ccc([N+](=O)[O-])cc45)cc3)cc2)cc1 | > 100 µM | > 100 |
| COc1ccc(-c2cc(-c3ccc(Nc4ccnc5cc(C(F)(F)F)ccc45)cc3)[nH]c(=O)c2C#N)c2ccccc12 | > 100 µM | – |
| FC(F)(F)c1ccc(C=NC23CC4CC(CC(C4)C2)C3)cc1 | > 100 µM | – |
| COc1cc(/C=C2\N=C(c3ccccc3)N(C3Nc4cc5c(cc4S3)NC(N3C(=O)/C(=C/c4cc(OC)c(OC)c(OC)c4)N=C3c3ccccc3)S5)C2=O)cc(OC)c1OC (configuration not stated) | > 100 µM | – |
| C=CCN1C(=O)/C(=C/c2ccc(C)cc2)N=C1SC/C=C/C | > 100 µM | – |
| O=C(CSc1nnc(Cc2ccccc2)o1)Nc1ccc(Cl)cc1 | > 100 µM | – |
| C=C1C(=O)OC2/C=C(\C)C(O)CC(O)C(C)(O)CC(OC(=O)/C(C)=C/C)C12 (configuration not stated) | > 100 µM | – |
| c1ccc2c(c1)CCc1c-2n(CCN2CCCCC2)c2ccccc12 | 41.3 µM | – |
| Cc1ccc(S(=O)(=O)CNC(=S)CCCC(=S)NCS(=O)(=O)c2ccc(C)cc2)cc1 | > 100 µM | – |
| CC(C)(C)OC(=O)C1=C(C(=O)OC(C)(C)C)SC2(S1)C(C(=O)OC(C)(C)C)=C(C(=O)OC(C)(C)C)Sc1c2ssc1=O | > 100 µM | – |
| Oc1cc(Cl)cc2cc(Br)cnc12 | > 100 µM | – |
| O=C(O)Cc1ccc(N2N=C(c3ccccc3)CC2=O)cc1 | > 100 µM | – |
| Clc1ccc(OCc2nnc3sc(-c4ccc(-c5ccc(Cl)cc5Cl)o4)nn23)c(Cl)c1 | 50.4 µM | – |
| NC1CC2C3CCC2C1C3=O (configuration not stated) | > 100 µM | – |
| COc1cccc(/C=C/C(=O)c2ccc(Cl)cc2Cl)c1OC | 27.8 µM | 14.3 |
| C=C(CNCCc1ccc(O)cc1)[C@@H]1CC[C@]2(CO)CC[C@]3(C)[C@H](CC[C@@H]4[C@@]5(C)CCC(=O)C(C)(C)[C@@H]5CC[C@]43C)[C@@H]12 | 2.99 µM | 1.61 |
| CC(SC(=S)N1CCCCC1)C(=O)Nc1nnc(-c2ccc(Cl)cc2)o1 (configuration not stated) | > 100 µM | – |

| SMILES | TGI | GI50 [µM] |
| --- | --- | --- |
| CCOC(=O)/C=C1\SC(=Nc2ccc(C#N)cc2)N(CCN2C(=O)/C(=C/C(=O)OCC)SC2=Nc2ccc(C#N)cc2)C1=O | 19.8 µM | 6.4 |
| CCOC(=O)CCC(NC(=O)c1ccc(CNc2nc3cc(N)cc(N)c3nc2-c2ccccc2)cc1)C(=O)OCC (configuration not stated) | > 100 µM | – |
| O=C(CC/C(C/C(=N/O)c1ccc(F)cc1)=N/O)N(Cc1ccccc1)Cc1ccccc1 | > 100 µM | – |
| CN1CCN(CC(=O)Nc2ccc3ncnc(Nc4ccc(Oc5cccc(C(F)(F)F)c5)c(Cl)c4)c3c2)CC1 | 2.57 µM | 1.29 |
| CCC(=O)OCc1ccc2oc(=O)c(C(=O)Oc3cncc(Cl)c3)cc2c1 | > 100 µM | – |
| CC(=O)Oc1ccn2nc(C)c(Br)c2c1Br | > 100 µM | – |
| O=C(CCCCCCCCC(=O)NN1C(=O)/C(=C\c2ccc(O)c(O)c2)SC1c1c(O)ccc2ccccc12)NN1C(=O)C(=Cc2ccc(O)c(O)c2)SC1c1c(O)ccc2ccccc12 (configuration not stated) | 96.8 µM | – |
| O=S(=O)(NC(=S)Nc1ccccc1)c1ccc(N2N=C3c4ccccc4CC3C2c2cccs2)cc1 (configuration not stated) | 23.5 µM | 5.67 |
| COc1ccc2cc(C(=O)/C=C/c3cccc(Cl)c3Cl)ccc2c1 | > 100 µM | 32.3 |
| COC(=O)c1c2c(c(C)[n+]([O-])c1C)C(=O)C=C(NCc1cccc(OC)c1)C2=O | 1.76 µM | 0.549 |
| Nc1nc2ccc([C@@H]3Nc4ccc5[nH]ncc5c4[C@H]4[C@H]5CCC(C5)[C@H]43)cc2s1 | 3.53 µM | 1.68 |
| O=C1CC(Br)c2c(Cl)sc(Cl)c21 (configuration not stated) | 28.9 µM | – |
| CCOc1ccccc1NC(=O)CCc1nnc2s/c(=C\CCc3ccccc3)c(=O)n12 | > 100 µM | – |
| N[C@@H]1c2c(Br)sc(Br)c2[C@H](O)[C@@H]1O | > 100 µM | – |
| C#CCN1CCN(C(=S)N/N=C(\C)c2ccccn2)CC1 | 6.34 µM and 5.93 µM | 0.0215 |
| C(CCc1nnc2c(n1)CCCC2)Cc1nnc2c(n1)CCCC2 | > 100 µM | – |
| Cc1ccc(C(=O)CC(Cl)=C(Cl)Cl)cc1 | > 100 µM | – |
| COc1ccc(/C=C(/C(=O)N2CCCC2)c2cc(OC)c(OC)c(OC)c2)cc1N | > 100 µM | 5.98 |
